Measurements reported in publication PMC4336329 (PLoS ONE, 2015).
About 2,200 (0.71%) of roughly 310,000 compounds showed an effect of 50% or more. The effect is printed as a negative number. This is one part of the list.

Molecular target: human ether-à-go-go-related gene (hERG) potassium channel (human, UniProt Q12809)
Assay: primary screen, population patch clamp on CHO cells stably expressing hERG

Sequence of human ether-à-go-go-related gene (hERG) potassium channel (Q12809 whole entry, looked up): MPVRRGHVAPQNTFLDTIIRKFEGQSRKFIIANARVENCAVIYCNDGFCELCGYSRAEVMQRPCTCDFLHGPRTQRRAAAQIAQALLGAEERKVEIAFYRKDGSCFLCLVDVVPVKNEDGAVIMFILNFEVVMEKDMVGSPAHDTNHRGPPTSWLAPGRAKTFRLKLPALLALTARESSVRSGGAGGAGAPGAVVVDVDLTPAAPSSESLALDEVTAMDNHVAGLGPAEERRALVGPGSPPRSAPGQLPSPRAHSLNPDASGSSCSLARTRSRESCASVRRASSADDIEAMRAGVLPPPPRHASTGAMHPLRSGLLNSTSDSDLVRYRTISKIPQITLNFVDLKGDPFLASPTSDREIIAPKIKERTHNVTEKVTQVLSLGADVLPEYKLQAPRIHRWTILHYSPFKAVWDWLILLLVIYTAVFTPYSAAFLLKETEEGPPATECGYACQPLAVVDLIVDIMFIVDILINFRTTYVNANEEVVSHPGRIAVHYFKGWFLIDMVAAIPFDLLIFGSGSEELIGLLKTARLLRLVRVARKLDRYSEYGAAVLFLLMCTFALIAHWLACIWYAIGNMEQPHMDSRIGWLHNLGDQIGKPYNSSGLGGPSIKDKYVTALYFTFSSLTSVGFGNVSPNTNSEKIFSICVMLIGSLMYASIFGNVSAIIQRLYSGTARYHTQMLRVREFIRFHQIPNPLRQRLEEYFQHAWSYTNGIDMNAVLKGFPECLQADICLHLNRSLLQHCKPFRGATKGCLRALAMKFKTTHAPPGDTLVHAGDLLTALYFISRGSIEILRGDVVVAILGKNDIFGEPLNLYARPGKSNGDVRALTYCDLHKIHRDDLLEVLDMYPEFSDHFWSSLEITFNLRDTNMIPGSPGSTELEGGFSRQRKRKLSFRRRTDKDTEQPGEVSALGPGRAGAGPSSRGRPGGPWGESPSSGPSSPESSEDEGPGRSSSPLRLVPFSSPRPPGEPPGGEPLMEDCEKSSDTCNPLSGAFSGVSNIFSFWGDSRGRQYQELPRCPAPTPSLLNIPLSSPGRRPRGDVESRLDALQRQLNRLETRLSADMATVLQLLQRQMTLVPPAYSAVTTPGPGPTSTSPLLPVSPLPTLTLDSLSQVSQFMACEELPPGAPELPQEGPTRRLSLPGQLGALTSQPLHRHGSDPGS

Structure (SMILES) | hERG current change (%, negative = inhibition) at 1uM [%]
CCOc1ccc2nc(N3CCCC(C(=O)NCCCN4CCCCC4)C3)sc2c1 (stereo not drawn) | -11.7
Cc1cc(C)cc(NC(=O)CCNC(=O)c2ccc([N+](=O)[O-])cc2)c1 | 4.54
Cc1ccnn2cc3c(=O)n(C)c(=O)n(C)c3c12 | 14.4
CCCC(=O)N(CCN1CCOCC1)c1nc2c(OC)ccc(C)c2s1.Cl | -6.69
Cc1cccc2sc(NC(=O)c3cc(S(=O)(=O)N(C)C)ccc3N3CCCC3)nc12 | 20.3
O=C(COC(=O)CC1c2ccccc2CCN1S(=O)(=O)c1ccccc1)Nc1ccccc1 (stereo not drawn) | 5.34
Nc1ccccc1Oc1ncc(C(F)(F)F)cc1Cl | 20.4
COc1ccc(CCn2c(-n3nc(C)cc3C)nc3c2c(=O)[nH]c(=O)n3C)cc1 | 6.22
COc1ccc(C(CCN2CCCC2)c2c(O)cc(OC)cc2OC)cc1 (stereo not drawn) | -21.1
O=C(COc1cccc(-n2cnnn2)c1)NC1CCCCC1 | 12.3
O=C(CCCN1C(=O)c2ccccc2C1=O)NCC1CCCO1 (stereo not drawn) | 9.69
CCOC(=O)[C@@H]1[C@H]2COc3ccc(Br)cc3[C@@H]2N2C(=O)N(c3ccccc3)C(=O)[C@]12C | 6.78
COc1ccc(CN2C(=O)COc3ccccc32)cc1 | 13.2
Cc1ccc(NC(=O)CCCc2nc3ccccc3c(=O)[nH]2)c(Cl)c1 | 4.55
O=C(NC1CC2CCCC(C1)N2C(=S)NCCc1ccccc1)C1CC1 (stereo not drawn) | 8.33
COc1cc(NC(=O)C(Cc2ccccc2)n2cccc2)cc(OC)c1 (stereo not drawn) | 0.297
O=C(Nc1ccc(-c2nc3ccccc3[nH]2)cc1)c1ccco1 | 6.74
CC1CCc2c(C(=O)NCCCN3CCOCC3)csc2C1 (stereo not drawn) | 3.41
Cn1c(=O)[nH]c(=O)c2c1nc(SCC(=O)O)n2CCCc1ccccc1 | 12.8
COc1ccc(NC(=O)CN(C)C(=O)/C=C/c2ccc(S(=O)(=O)N3CCCCCC3)cc2)cc1 | 20
O=C(N1CCCC1)C12CCC3CC(CC(C3)C1)C2 | 12.9
Cc1cc(OCCCC(=O)NNC(=O)c2ccncc2)ccc1Cl | 0.533
CC(/C=C/c1ccco1)=N/NC(=O)C1COc2ccccc2O1 (stereo not drawn) | 11.4

Structure (SMILES) | hERG current change (%, negative = inhibition) at 1uM [%]
CC1CC(C)CN(CC(O)COC2CC(C)CC(C)(C)C2)C1.Cl (stereo not drawn) | -4.44
CCCN(CCC(=O)Nc1ccccc1F)CC1CC1 | 4.67
CCOc1ccc(S(=O)(=O)N2CCCCC2)cc1NC(=O)CN1C(=O)NC(C)(c2ccc(C)cc2)C1=O (stereo not drawn) | -2
CN(CC(=O)Nc1ccc(F)cc1)C(=O)COC(=O)c1cccc(N(C)C)c1 | 3.72
Cc1cnc(NC(=O)COc2ccccc2Cl)s1 | 4.3
N#CCC(=O)Nc1ccc(C(=O)NNC(=O)CCN2CCN(c3ccccc3)CC2)cc1 | -7.69
O=C(CSc1nc2ccccc2n1CC(=O)N1CCOCC1)N1CCCC1 | 16.9
CCOC(=O)c1ccccc1NC(=O)CSc1ccccc1 | -6.19
CCCCn1c(N)c(N(CCOC)C(=O)COC(=O)c2cc(CC)c(C)s2)c(=O)[nH]c1=O | 17.9
Cc1ccccc1N1C(=O)C2CCCN2C1=S (stereo not drawn) | 11.1
COCCn1c(=S)[nH]c2cc(C(=O)NCC3CCCO3)ccc2c1=O (stereo not drawn) | -0.861
Cc1ccccc1NC(=O)C1Cc2ccccc2C(=O)O1 (stereo not drawn) | 9.98
CCCCCn1c(CN2CCN(C(=O)c3ccco3)CC2)nc2c1c(=O)n(C)c(=O)n2C | -37.1
COc1cccc(CNC(=O)C2CCN(C(=O)N3CC(C)Oc4ccccc43)CC2)c1 (stereo not drawn) | 10.2
COC(=O)CC1c2ccccc2S(=O)(=O)N1Cc1ccccc1 (stereo not drawn) | 6.7
CC(=O)CSc1nnc(-c2ccc(S(=O)(=O)N3CCC(C)CC3)cc2)o1 | 5.36
Cc1ccc(-c2nnn(CC(=O)N(c3cccc(O)c3)C(C(=O)NC(C)(C)C)c3cccs3)n2)o1 (stereo not drawn) | 11.2
NS(=O)(=O)c1ccc(N/N=C2/CCCc3ccccc32)c([N+](=O)[O-])c1 | 16.5
CCOC(=O)Cn1c(=N)n(CCOc2ccc(F)cc2)c2ccccc21.Cl | -31.8
CCCOc1ccc(Br)cc1/C=N/O | -3.89
Cn1c(=O)c(C(=O)COc2ccc(F)cc2Cl)c(N)n(Cc2ccccc2)c1=O | 15.8
c1csc(CCNc2ncnc3sc4c(c23)CCC4)c1 | 11.8
